About 2,200 (0.71%) of roughly 310,000 compounds showed an effect of 50% or more. The effect is printed as a negative number. This is one part of the list.
The compounds below were run against human ether-à-go-go-related gene (hERG) potassium channel (human, UniProt Q12809) (assay: primary screen, population patch clamp on CHO cells stably expressing hERG).
Chain of human ether-à-go-go-related gene (hERG) potassium channel (Q12809 whole entry, looked up): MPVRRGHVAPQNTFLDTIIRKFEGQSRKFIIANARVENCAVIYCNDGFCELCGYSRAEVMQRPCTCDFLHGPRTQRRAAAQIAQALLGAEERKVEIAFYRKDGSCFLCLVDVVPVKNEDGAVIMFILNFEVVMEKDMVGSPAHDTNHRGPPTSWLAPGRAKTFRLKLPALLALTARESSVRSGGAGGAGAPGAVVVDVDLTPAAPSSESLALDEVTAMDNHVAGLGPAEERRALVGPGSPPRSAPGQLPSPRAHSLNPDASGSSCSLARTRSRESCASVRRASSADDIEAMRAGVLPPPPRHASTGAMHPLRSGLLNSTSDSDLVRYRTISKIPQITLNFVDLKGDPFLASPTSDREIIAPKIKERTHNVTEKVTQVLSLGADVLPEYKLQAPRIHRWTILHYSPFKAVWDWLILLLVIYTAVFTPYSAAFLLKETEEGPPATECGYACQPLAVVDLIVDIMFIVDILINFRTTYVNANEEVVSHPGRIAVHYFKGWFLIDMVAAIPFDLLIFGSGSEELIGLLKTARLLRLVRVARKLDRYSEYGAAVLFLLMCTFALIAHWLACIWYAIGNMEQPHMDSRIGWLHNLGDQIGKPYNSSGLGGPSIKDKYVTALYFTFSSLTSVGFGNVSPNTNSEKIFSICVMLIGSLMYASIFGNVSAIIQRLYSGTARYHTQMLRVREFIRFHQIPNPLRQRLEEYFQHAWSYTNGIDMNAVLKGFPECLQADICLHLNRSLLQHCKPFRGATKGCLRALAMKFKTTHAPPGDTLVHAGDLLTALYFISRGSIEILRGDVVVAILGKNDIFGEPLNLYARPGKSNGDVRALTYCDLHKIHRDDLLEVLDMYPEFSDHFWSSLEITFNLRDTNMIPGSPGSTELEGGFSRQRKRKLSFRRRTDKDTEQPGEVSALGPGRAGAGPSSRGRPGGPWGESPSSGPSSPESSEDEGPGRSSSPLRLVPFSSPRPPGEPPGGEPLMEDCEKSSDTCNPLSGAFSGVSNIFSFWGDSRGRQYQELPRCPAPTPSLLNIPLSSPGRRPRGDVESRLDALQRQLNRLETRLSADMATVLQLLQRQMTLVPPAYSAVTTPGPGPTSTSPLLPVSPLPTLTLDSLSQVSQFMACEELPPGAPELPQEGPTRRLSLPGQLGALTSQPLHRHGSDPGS

| SMILES | hERG current change (%, negative = inhibition) at 1uM [%] |
| --- | --- |
| Cc1ccc(NC(=O)/C(=C\c2cccs2)NC(=O)c2ccccc2)cc1 | -1.02 |
| COc1ccc(S(=O)(=O)N2CCCCCC2)cc1C(=O)N1CCN(c2ccccc2C)CC1 | 2.59 |
| CN1CCN(c2ccc(CNS(=O)(=O)c3ccc(Cl)cc3)cc2)CC1 | 12.8 |
| COCCCNC(=O)CSc1nc2cc3c(cc2c(=O)n1CCCC(=O)NCc1ccc(OC)cc1)OCO3 | 10.3 |
| Cc1noc(C)c1CSc1nnc2n(-c3ccccc3)c(=O)c3ccccc3n12 | -11.5 |
| Cc1cc(Oc2ccc(C(F)(F)F)cc2[N+](=O)[O-])c2c3c(c(=O)oc2c1)CCC3 | 14 |
| COC(=O)c1ccc2c(c1)N(Cc1nc(-c3ccc(Cl)cc3)oc1C)C(=O)C1CCCN21 (centres unmarked) | 9.35 |
| C/C(=N\NC(=O)CN1CCN(c2ccc(F)cc2)CC1)c1ccco1 | 1.44 |
| CC(=O)Nc1ccc(N(C(=O)c2ccco2)C(C(=O)NC2CCCCC2)c2ccccc2)cc1 (centres unmarked) | 9.39 |
| Cc1ccc(S(=O)(=O)N2CCC(C(=O)N3CCC[C@H]3C(=O)NC3CCS(=O)(=O)C3)CC2)cc1 (some centres unmarked) | 0.521 |
| CCN(C(=O)COc1ccc(C(=O)c2ccccc2)cc1)c1ccccc1 | 6.71 |
| O=C(c1ccccc1)C(Sc1ncn[nH]1)c1ccccc1 (centres unmarked) | 3.49 |
| COC(=O)/C(=C1/Oc2ccc(C(C)(C)C)cc2S1)C(F)(F)F | 12.1 |
| Cc1ccccc1NC(=S)NCC(c1cccnc1)N(C)C (centres unmarked) | 10.9 |
| COc1ccc(Cl)cc1NC(=O)c1noc(C)c1[N+](=O)[O-] | 6.27 |
| CCOc1cc(C)c(S(=O)(=O)NC2CC(C)(C)NC(C)(C)C2)cc1C | 7.72 |
| CCOC(=O)C1(c2ccccc2)CCN(Cc2cccc(C(=O)O)c2)CC1.Cl | 2.99 |
| CC(=O)Nc1ccc(C(=O)OCc2ccc(Cl)c(Cl)c2)cc1 | 12.2 |
| CC(=O)Nc1c(Nc2ccccc2)c2ccccc2oc1=O | 13.6 |
| Cc1sc(NC(=O)C2CC=CCC2C(=O)O)c(C(=O)OC(C)C)c1C (centres unmarked) | 12.9 |
| COc1ccccc1N(CN1C(=O)c2ccccc2C1=O)C(=O)c1cccc(C)c1 | 12.4 |
| Cc1ccc(C(NC(=O)N2CCN(C)CC2)C(Cl)Cl)cc1F (centres unmarked) | 5.67 |

| SMILES | hERG current change (%, negative = inhibition) at 1uM [%] |
| --- | --- |
| COc1cccc(NC(=O)NC2(C(=O)N3CCC(O)CC3)CCCCC2)c1 | 15.5 |
| CC(C)(C)C(=O)Nc1c2c(nc3c1CCC3)CCCC2 | 0.315 |
| Cc1ccc(N(C(=O)C2CCCC2)C2C=CS(=O)(=O)C2)cc1 (centres unmarked) | 8.1 |
| Cc1cc(C)c2c(=O)n(CC(=O)Nc3ccc(Cl)cc3)sc2n1 | 11.9 |
| Cc1ccn(S(=O)(=O)c2ccc(N3CCCC3=O)cc2)n1 | 15.7 |
| O=C(N/N=C\C=C\c1ccco1)c1cc(-c2ccc3ccccc3c2)n[nH]1 | 1.18 |
| COc1ccc(OC)c(NC(=O)CSc2nc(N)c(-c3ccccc3)c(=O)[nH]2)c1 | 13.6 |
| O=C(Oc1nsnc1N1CCOCC1)N1CCOCC1 | 14.1 |
| CCN(CC)CCNCC(=O)Nc1ccc(Cl)cc1C(=O)c1ccccc1.O=C(O)C(=O)O | -84.2 |
| COCCN(C(=O)Cc1cccs1)C(C(=O)NCc1ccc(OC)cc1)c1ccc(C(C)C)cc1 (centres unmarked) | 9.05 |
| O=C(c1ccc(S(=O)(=O)N2CCOCC2)cc1)N1CCc2ccccc21 | 17.4 |
| COc1ccccc1NC(=O)C(=O)NCCCN1CCCC1=O | 0.283 |
| COc1ccc(N2CCN(C(=O)CN3CCN(c4nc(-c5ccc(F)cc5)cs4)CC3)CC2)cc1 | 7.78 |
| COc1ccc2oc(=O)cc(CN3CCN(Cc4ccc(OC)c(OC)c4OC)CC3)c2c1 | -2.05 |
| O=C(Nc1ccc(Cl)cc1)NC1CCCCC1 | 12.2 |
| CC(=O)Nc1ccc(Oc2cnc3ccccc3n2)cc1 | 0.103 |
| Nc1nc(Nc2ccccc2)nc(C(F)(F)F)n1 | 14.7 |
| CC1(C)CC(=O)c2cnc(NC(=O)C3CCCC3)nc2C1 | 3.16 |
| CC(C)(Oc1ccc(Cl)cc1)C(=O)OCC(=O)NCCc1ccccc1 | 5.4 |
| O=S(=O)(Nc1ccncc1)c1cc(Cl)c(Cl)cc1Cl | 7 |
| CCN1CCN(C(c2cccs2)C(C)NC(=O)NC2CCCCC2)CC1 (centres unmarked) | -2.02 |
| COC(=O)[C@H]1CCCN1C(=O)Nc1cccc(Oc2c(F)c(F)c(F)c(F)c2F)c1 | -9.06 |

From paper PMC4336329 (PLoS ONE, 2015)
